Laboratory results published in patent US20220339143A1, “TAK-925 FOR USE IN TREATING NARCOLEPSY” (Takeda Pharmaceutical Company Limited, priority 2019, published 2022).
Further values from the same series stand in other lists.

How the values were obtained:
Assay type in all cases: in vivo, human
[1] = Multiple-dose PK of intravenous Compound A in patients with NT1 (Cohorts B1, B2), plasma
Experimental: The purpose of the study was to evaluate the safety, tolerability, pharmacokinetics and pharmacodynamics of Compound A after multiple IV administration in patients with NT1. NT1 patients were evaluated in Cohort B1 and B2 (Table 19). Compound A or placebo were administered via IV infusion over 9 hours once daily for 7 days. A total of 13 patients with NT1 were treated with Compound A or placebo (4, 4, and 5 subjects in the placebo, Compound A 11 mg, and Compound A 44 mg groups, respectively). In this part, potential efficacy of Compound A was evaluated with MWT, ESS, KSS, night-time PSG (NPSG), cataplexy frequency assessment, and PGI-C as an exploratory PD assessment.
Blood samples used for PK analysis of Compound A was collected according to Table 20. See also FIG. 12 for whole schedules of study procedures.

[2] = Single dose PK in patients with narcolepsy (Cohorts 5, 6 and 7), plasma
Experimental: This study investigates (i) the safety and tolerability of Compound A (methyl (2R,3S)-3-((methylsulfonyl)amino)-2-(((cis-4-phenylcyclohexyl)oxy)methyl)piperidine-1-carboxylate) when a single dose given as a 9 hour continuous IV infusion is administered to healthy adults, healthy elderly subjects and patients with narcolepsy type 1 (NT1); (ii) the pharmacokinetics of Compound A when a single dose given as a 9 hour continuous IV infusion is administered to healthy adults, healthy elderly subjects and patients with narcolepsy type 1; and (iii) the pharmacodynamics (PD) effects of Compound A, primarily by evaluation of the sleep latency on MWT when a single dose given as a 9 hour continuous IV infusion is administered to patients with narcolepsy type 1.
In Part 2, NT1 patients received a single dose of Compound A or placebo administered as a continuous IV infusion over a 9-hour period during the day. A 40-minute Maintenance of Wakefulness Test (MWT) was conducted 4 times during the continuous IV infusion to assess effects on wakefulness in soporific conditions at 2, 4, 6 and 8 hours from start of infusion. Three cohorts of patients were enrolled (n=14 total).
(§1) Pharmacokinetics: Concentrations of Compound A in plasma, and CSF, and pharmacokinetics parameters.
On average, the time to reach the plateau appeared to be approximately 4 hours after the start of infusion. […] After switching off the IV infusion, Compound A plasma concentrations declined rapidly and in a biphasic manner with a mean terminal disposition phase t1/2z ranging approximately from 3.5 to 4.1 hours across the doses.

[3] = Plasma concentrations in healthy subjects (Cohort 4)
Experimental: as §1
Following a single 9-hour IV infusion of 112 mg to healthy adult subjects in Cohort 4, Compound A plasma concentration-time profile was consistent with that observed in Cohort 1. At 6 hours after the start of infusion, mean ratio CSF/plasma concentration of Compound A was estimated to be about 2.8%.

[4] = 5 mg, 0.17 hr After End of Infusion, NT1
[5] = 5 mg, 0.5 hr After End of Infusion, NT1
[6] = 5 mg, 2 hr After End of Infusion, NT1
[7] = 5 mg, Predose, NT1, single 9 h IV infusion
[8] = 11.2 mg, 0.17 hr After End of Infusion, NT1
[9] = 11.2 mg, 0.5 hr After End of Infusion, NT1
[10] = 11.2 mg, 2 hr After End of Infusion, NT1
[11] = 11.2 mg, Predose, NT1, single 9 h IV infusion
[12] = 44.8 mg, 0.17 hr After End of Infusion, NT1
[13] = 44.8 mg, 0.5 hr After End of Infusion, NT1
[14] = 44.8 mg, 2 hr After End of Infusion, NT1
[15] = 44.8 mg, Predose, NT1, single 9 h IV infusion

With COC(=O)N1CCC[C@H](NS(C)(=O)=O)[C@@H]1CO[C@H]1CC[C@@H](c2ccccc2)CC1 [Compound A, methyl (2R,3S)-3-((methylsulfonyl)amino)-2-(((cis-4-phenylcyclohexyl)oxy)methyl)piperidine-1-carboxylate] the “Ceoi, Geo Mean” value ([1]; 11 mg, Day 1) was 17.39 ng/mL, the “Ceoi, Geo Mean” value ([1]; 11 mg, Day 7) was 17.68 ng/mL and the “Ceoi, Mean” value ([1]; 11 mg, Day 7) was 17.75 ng/mL. For the same compound, the “Ceoi, Mean” value ([1]; 44 mg, Day 1) was 72.04 ng/mL, the “Ceoi, Geo Mean” value ([1]; 44 mg, Day 7) was 73.20 ng/mL and the “Ceoi, Mean” value ([1]; 44 mg, Day 7) was 74.44 ng/mL. For the same compound, the “Plasma concentration, Mean” value [2, 4] was 5.888 ng/mL, the “Plasma concentration, Median” value [2, 4] was 5.520 ng/mL and the “Plasma concentration, Mean” value [2, 5] was 4.424 ng/mL. The “Plasma concentration, Median” value [2, 5] was 3.990 ng/mL, the “Plasma concentration, Mean” value [2, 6] was 2.358 ng/mL and the “Plasma concentration, Median” value [2, 6] was 2.260 ng/mL. The “Plasma concentration, Mean” value ([2]; 5 mg, At Bed Time, NT1) was 1.071 ng/mL, the “Plasma concentration, Median” value ([2]; 5 mg, At Bed Time, NT1) was 0.8550 ng/mL and the “Plasma concentration, Mean” value [2, 7] was 0.000 ng/mL. For the same compound, the “Plasma concentration, Median” value [2, 7] was 0.000 ng/mL, the “Plasma concentration, Mean” value [2, 8] was 12.38 ng/mL and the “Plasma concentration, Median” value [2, 8] was 11.80 ng/mL. For the same compound, the “Plasma concentration, Mean” value [2, 9] was 9.545 ng/mL, the “Plasma concentration, Median” value [2, 9] was 9.210 ng/mL and the “Plasma concentration, Mean” value [2, 10] was 4.838 ng/mL. For the same compound, the “Plasma concentration, Median” value [2, 10] was 5.070 ng/mL, the “Plasma concentration, Mean” value ([2]; 11.2 mg, At Bed Time, NT1) was 1.923 ng/mL and the “Plasma concentration, Median” value ([2]; 11.2 mg, At Bed Time, NT1) was 1.890 ng/mL. The “Plasma concentration, Mean” value [2, 11] was 0.000 ng/mL, the “Plasma concentration, Median” value [2, 11] was 0.000 ng/mL and the “Plasma concentration, Mean” value [2, 12] was 68.70 ng/mL. The “Plasma concentration, Median” value [2, 12] was 64.15 ng/mL, the “Plasma concentration, Mean” value [2, 13] was 53.93 ng/mL and the “Plasma concentration, Median” value [2, 13] was 52.50 ng/mL. For the same compound, the “Plasma concentration, Mean” value [2, 14] was 25.85 ng/mL, the “Plasma concentration, Median” value [2, 14] was 26.85 ng/mL and the “Plasma concentration, Mean” value ([2]; 44.8 mg, At Bed Time, NT1) was 11.37 ng/mL. The “Plasma concentration, Median” value ([2]; 44.8 mg, At Bed Time, NT1) was 10.36 ng/mL, the “Plasma concentration, Mean” value [2, 15] was 0.000 ng/mL and the “Plasma concentration, Median” value [2, 15] was 0.000 ng/mL. The Plasma concentration ([3]; 0.17 hr After End of Infusion, Mean) was 113.0 ng/mL, the Plasma concentration ([3]; 0.17 hr After End of Infusion, Median) was 110.0 ng/mL and the Plasma concentration ([3]; 0.33 hr After End of Infusion, Mean) was 92.68 ng/mL. It also gave a Plasma concentration ([3]; 0.33 hr After End of Infusion, Median) of 94.70 ng/mL, a Plasma concentration ([3]; 0.5 hr After End of Infusion, Mean) of 85.58 ng/mL and a Plasma concentration ([3]; 0.5 hr After End of Infusion, Median) of 88.85 ng/mL. For the same compound, the Plasma concentration ([3]; 0.75 hr After End of Infusion, Mean) was 72.88 ng/mL, the Plasma concentration ([3]; 0.75 hr After End of Infusion, Median) was 73.60 ng/mL and the Plasma concentration ([3]; 1 hr After End of Infusion, Mean) was 60.93 ng/mL. It also gave a Plasma concentration ([3]; 1 hr After End of Infusion, Median) of 61.15 ng/mL, a Plasma concentration ([3]; 1.5 hr After End of Infusions, Mean) of 46.63 ng/mL and a Plasma concentration ([3]; 1.5 hr After End of Infusions, Median) of 45.80 ng/mL. The Plasma concentration ([3]; 2 hr After End of Infusions, Mean) was 30.58 ng/mL, the Plasma concentration ([3]; 2 hr After End of Infusions, Median) was 31.25 ng/mL and the Plasma concentration ([3]; 3 hr After End of Infusions, Mean) was 22.13 ng/mL. The Plasma concentration ([3]; 3 hr After End of Infusions, Median) was 22.25 ng/mL, the Plasma concentration ([3]; 4 hr After End of Infusions, Mean) was 16.33 ng/mL and the Plasma concentration ([3]; 4 hr After End of Infusions, Median) was 16.35 ng/mL. It also gave a Plasma concentration ([3]; 6 hr After End of Infusions, Mean) of 7.968 ng/mL, a Plasma concentration ([3]; 6 hr After End of Infusions, Median) of 7.980 ng/mL and a Plasma concentration ([3]; 10 hr After End of Infusions, Mean) of 5.365 ng/mL. For the same compound, the Plasma concentration ([3]; 10 hr After End of Infusions, Median) was 4.240 ng/mL, the Plasma concentration ([3]; 15 hr After End of Infusions, Mean) was 2.445 ng/mL and the Plasma concentration ([3]; 15 hr After End of Infusions, Median) was 1.380 ng/mL. For the same compound, the Plasma concentration ([3]; Predose, Mean) was 0.000 ng/mL and the Plasma concentration ([3]; Predose, Median) was 0.000 ng/mL.
